Our source for the self-cleavage values is the RNAGym collection of RNA variant scans (doi:10.1093/nar/gkz1192).

B1: CPEB3 Ribozyme (parent)
chain: UAACAGGGGGCCACAGCAGAAGCGUUCACGUCGCAGCCCCUGUCAGAUUCUGGUGAAUCUGCGAAUUCUGCUGUAUAUCUC

Read counts are not given, so values of variants with three or more changes are uncertain.

The data set covers variants of B1. Put plainly: self-cleavage, relative activity (ratio to wild type); higher = more cleavage; in vitro, sequencing. The gist of the method: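 CPEB3 self-cleaving ribozyme mutant libraries were made by rounds of error-prone PCR, barcoded, and transcribed in vitro with T7 RNA polymerase for 5 hours at 37°C. Cleavage occurred during transcription and a 15 min DNase I step before EDTA stop. RNAs were reverse transcribed with template switching and Illumina-sequenced, with DNA sequencing mapping barcodes to variants. Relative activity is the variant's cleaved/total read fraction divided by wild type's (minimum 5 reads), averaged across three batches.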
As for A13G A28C U41C C81U, the self-cleavage is 0.37. For A13G A20G U25C A64U, the self-cleavage was 0.11. Consider A13G A20G U72C, for which the self-cleavage was 0.45. With A13G G19U A21G U26C C62U, the self-cleavage was found to be 0.17. With A13G U25C G33A A35G, the self-cleavage was 0.34. With A13G U25C U41A U67C, the self-cleavage is 0.39. For the variant A13G A21U A35U A56G A65G, the self-cleavage is 0.08. Take A13G A20U A28U C37U: the self-cleavage worked out at 0.1. With A13G A35U U41A U67C U72A, the self-cleavage was found to be 0.05.

As to A13G A28C A57G G63C, the self-cleavage was 0.18. Then A13G A18U A45G, with 0.17. As for A13G A28G A47U U72C, the figure is 0.09; as for A13G G33A U41C U51A U72C, 0.06; as for A13G C23G U25C U26A, 0.49. Consider A13G G55A U60C A75G U80C, for which the self-cleavage is 0.2.

With A13G U25A U41C U43C, the self-cleavage was found to be 0.23.

With A13G C23U G42A, the self-cleavage amounted to 0.09. In the case of A13G A20U A21G U26C U41C A64G A75G, the self-cleavage is 0. Turning to A13G A47C G55C A57U, the self-cleavage is 0.12.

Take A13G U25C U41C U80C: the self-cleavage came out at 0.11. Consider A13G A28U U49C, for which the self-cleavage stood at 0.18. As for A13G G24A U58C U80C, the self-cleavage is 0.22. For the variant A13G A35G A45G U51C U80A, the self-cleavage was found to be 0.36. On to A13G A20G A35C G46A U67A U69C, for which the self-cleavage came to 0.11.

With A13G C40A C50A U69C U72A A75U, the self-cleavage was found to be 0.05. For the variant A13G A56U A75G, the self-cleavage is 0.41. With A13G C39G U49C U54C U74A U80A, the self-cleavage turned out to be 0.06. Then A13G A35G U72C, with 0.77; and A13G A35G U43C U49C U69C, with 0.22; and A13G A21G U26C, with 0.45. As to A13G A20G C71A, the self-cleavage amounted to 0.25. A13G G46C U48C A56U: the self-cleavage came out at 0.07.

For A13G A35G U51C A57U, the self-cleavage was 0.16.

As for A13G U26A A35G G42A U48C, the self-cleavage was 0.21.

As to A13G A35G A56G U74C U80C, the self-cleavage was 0.97. As for A13G G16C C17U U72G A77C, the self-cleavage turned out to be 0.18. Consider A13G A18U U26C A28G U41C A64U U69C, for which the self-cleavage came to 0.1. For the variant A13G C68A U76A, the self-cleavage was found to be 0.39. As for A13G A28G G46U U54A U78C U80C, the self-cleavage amounted to 0.05. As for A13G A18U U25C C29U, the figure is 0.08. As for A13G A57G U72A, the self-cleavage is 0.42.

Turning to A13G C40G U41G A45G U49C, the self-cleavage was 0.09.

For the variant A13G U25C A75G, the self-cleavage is 0.26. Take A13G U25A U67A U78A: the self-cleavage amounted to 0.06.

As for A13G C40U U60A A65G, the self-cleavage amounted to 0.14. Turning to A13G U25C A64G U67C, the self-cleavage worked out at 0.13. A13G A20U G33A A64G: the self-cleavage came to 0.16. With A13G A20U A21U C40U U78C, the self-cleavage was 0.18. As to A13G A45U A64G, the self-cleavage worked out at 0.25. As for A13G A20U U25C C32U C68A, the figure is 0.12; as for A13G G24A U25C U41C U54G U66C, 0.16. Turning to A13G U25G U58C, the self-cleavage is 0.26. On to A13G A20G A21G, for which the self-cleavage is 0.3.

As to A13G A21G C39G U54A A77G, the self-cleavage was 0.3. As for A13G G16A C39A A65C, the self-cleavage was found to be 0.07.

Take A13G A57G U60C U72C: the self-cleavage came to 0.08. As for A13G A21U U31C A75U, the self-cleavage came out at 0.23. In the case of A13G U25C A64G, the self-cleavage stood at 0.36. With A13G A35U A45G, the self-cleavage is 0.17. On to A13G A45G U48C U66C, for which the self-cleavage came out at 0.58. On to A13G A45U U66C G73C U74C U78C, for which the self-cleavage was found to be 0.09. As for A13G A21G A35G U51C, the figure is 0.11.

As to A13G A21G U54C U69C, the self-cleavage is 0.09. As for A13G C23G U26C G33A G36A U54A A57U, the figure is 0.22; as for A13G A45C U51C A56G U69A, 0.2. In the case of A13G A21G A56U, the self-cleavage came to 0.33. As for A13G A20G C32U G53A G61C C68U U80A, the self-cleavage was found to be 0.03. In the case of A13G A21G U43A U51C U60C, the self-cleavage stood at 0.13. On to A13G A20G U69A, for which the self-cleavage is 0.23.

For A13G A35G U66C U74A U78C, the self-cleavage worked out at 0.2. On to A13G A20G G52C A57G A77G, for which the self-cleavage came out at 0.61. As for A13G U25C U60C A64G A65G U67C, the self-cleavage came to 0.09. In the case of A13G A57G A65G U67A U69C, the self-cleavage worked out at 0.16.

On to A13G C23G U25C U26C G36A, for which the self-cleavage is 0.2. As to A13G A45G U69A U72A, the self-cleavage stood at 0.13. With A13G C40A C50A C62G C79G, the self-cleavage came to 0.06.

Regarding A13G G19U G63A U69C, the self-cleavage came to 0.22. On to A13G A35G U41A A64U, for which the self-cleavage was determined as 0.11. Then A13G A18U A28U A35G A45G G63A, with 0.06; and A13G C40A U58C U67C G73A U74A U80C, with 0.06. For A13G A20U A21G U43C U66A, the self-cleavage is 0.07. Then A13G A20G A28G C29U C39A C40U, with 0.09; and A13G U25C A65G, with 0.2. With A13G G33A U80C, the self-cleavage came out at 0.3.
